Some of the results follow. The list includes weakly bound sequences.
The sequences below were run against T1, MBP-FoxP3dN (UniProt Q99JB6) (assay: PD-seq (MBP pull-down with sequencing)). Conditions: 20 mM Tris-HCl pH 7.5, 100 mM NaCl, 1.5 mM MgCl2, 0.4 uM protein, 0.1 uM dsDNA library, 30 min, room temperature, amylose pull-down; high values mean tight binding; double strand, one strand shown.
T1 sequence: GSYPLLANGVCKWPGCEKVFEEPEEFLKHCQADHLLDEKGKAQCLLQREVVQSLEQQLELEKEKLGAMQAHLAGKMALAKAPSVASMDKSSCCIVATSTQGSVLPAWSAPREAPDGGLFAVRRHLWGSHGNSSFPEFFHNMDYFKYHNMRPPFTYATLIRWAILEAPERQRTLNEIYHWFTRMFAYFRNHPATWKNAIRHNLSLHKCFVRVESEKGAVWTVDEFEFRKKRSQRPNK

| Sequence | binding signal (RPM ratio (pull-down/input)) |
| --- | --- |
| GATGATTGTTCTCCCAGCTGATGAATTCCGGGTATCGAGTAAACAAATTTTCCTAATCTTTCTGTTCAAGCGCCATCTAC | 0.57 |
| GATGATTGTTCTCCCAGCTGATGAATTAAAGCTTTCGAGTAAACAAATTTTCCTAATCTTTCTGTTCAAGCGCCATCTAC | 0.897 |
| GATGATTGTTCTCCCAGCTGATGAATTAGCCTTGTCGAGTAAACAAATTTTCCTAATCTTTCTGTTCAAGCGCCATCTAC | 0.563 |
| GATGATTGTTCTCCCAGCTGATGAATTGAAGTGCTCGAGTAAACAAATTTTCCTAATCTTTCTGTTCAAGCGCCATCTAC | 0.386 |
| GATGATTGTTCTCCCAGCTGATGAATTCCTTATTTCGAGTAAACAAATTTTCCTAATCTTTCTGTTCAAGCGCCATCTAC | 0.335 |
| GATGATTGTTCTCCCAGCTGATGAATTCCGCCGATCGAGTAAACAAATTTTCCTAATCTTTCTGTTCAAGCGCCATCTAC | 0.698 |
| GATGATTGTTCTCCCAGCTGATGAATTTGTTCTGTCGAGTAAACAAATTTTCCTAATCTTTCTGTTCAAGCGCCATCTAC | 2.14 |
| GATGATTGTTCTCCCAGCTGATGAATTACCCATGTCGAGTAAACAAATTTTCCTAATCTTTCTGTTCAAGCGCCATCTAC | 0.294 |
| GATGATTGTTCTCCCAGCTGATGAATTATTAAGGTCGAGTAAACAAATTTTCCTAATCTTTCTGTTCAAGCGCCATCTAC | 0.284 |
| GATGATTGTTCTCCCAGCTGATGAATTGGCCATTTCGAGTAAACAAATTTTCCTAATCTTTCTGTTCAAGCGCCATCTAC | 0.956 |
| GATGATTGTTCTCCCAGCTGATGAATTATTCCTTTCGAGTAAACAAATTTTCCTAATCTTTCTGTTCAAGCGCCATCTAC | 0.308 |
| GATGATTGTTCTCCCAGCTGATGAATTGACGCCATCGAGTAAACAAATTTTCCTAATCTTTCTGTTCAAGCGCCATCTAC | 2.09 |
| GATGATTGTTCTCCCAGCTGATGAATTGAAAGTGTCGAGTAAACAAATTTTCCTAATCTTTCTGTTCAAGCGCCATCTAC | 0.3 |
| GATGATTGTTCTCCCAGCTGATGAATTTCCTATATCGAGTAAACAAATTTTCCTAATCTTTCTGTTCAAGCGCCATCTAC | 0.287 |
| GATGATTGTTCTCCCAGCTGATGAATTAATTGAGTCGAGTAAACAAATTTTCCTAATCTTTCTGTTCAAGCGCCATCTAC | 0.504 |
| GATGATTGTTCTCCCAGCTGATGAATTCGAGAAATCGAGTAAACAAATTTTCCTAATCTTTCTGTTCAAGCGCCATCTAC | 0.289 |
| GATGATTGTTCTCCCAGCTGATGAATTTGCAAATTCGAGTAAACAAATTTTCCTAATCTTTCTGTTCAAGCGCCATCTAC | 0.496 |
| GATGATTGTTCTCCCAGCTGATGAATTTATGGGTTCGAGTAAACAAATTTTCCTAATCTTTCTGTTCAAGCGCCATCTAC | 1.47 |
| GATGATTGTTCTCCCAGCTGATGAATTGCAGCAGTCGAGTAAACAAATTTTCCTAATCTTTCTGTTCAAGCGCCATCTAC | 0.75 |
| GATGATTGTTCTCCCAGCTGATGAATTATAACGGTCGAGTAAACAAATTTTCCTAATCTTTCTGTTCAAGCGCCATCTAC | 0.343 |
| GATGATTGTTCTCCCAGCTGATGAATTAGGCAGTTCGAGTAAACAAATTTTCCTAATCTTTCTGTTCAAGCGCCATCTAC | 0.85 |

| Sequence | binding signal (RPM ratio (pull-down/input)) |
| --- | --- |
| GATGATTGTTCTCCCAGCTGATGAATTAGTTCCTTCGAGTAAACAAATTTTCCTAATCTTTCTGTTCAAGCGCCATCTAC | 0.617 |
| GATGATTGTTCTCCCAGCTGATGAATTTGCGTCGTCGAGTAAACAAATTTTCCTAATCTTTCTGTTCAAGCGCCATCTAC | 2.28 |
| GATGATTGTTCTCCCAGCTGATGAATTGCAGGATTCGAGTAAACAAATTTTCCTAATCTTTCTGTTCAAGCGCCATCTAC | 0.551 |
| GATGATTGTTCTCCCAGCTGATGAATTCGTCGAGTCGAGTAAACAAATTTTCCTAATCTTTCTGTTCAAGCGCCATCTAC | 0.264 |
| GATGATTGTTCTCCCAGCTGATGAATTGCAGACATCGAGTAAACAAATTTTCCTAATCTTTCTGTTCAAGCGCCATCTAC | 0.762 |
| GATGATTGTTCTCCCAGCTGATGAATTGCGTTCGTCGAGTAAACAAATTTTCCTAATCTTTCTGTTCAAGCGCCATCTAC | 1.18 |
| GATGATTGTTCTCCCAGCTGATGAATTACTAGGTTCGAGTAAACAAATTTTCCTAATCTTTCTGTTCAAGCGCCATCTAC | 0.261 |
| GATGATTGTTCTCCCAGCTGATGAATTGACGACATCGAGTAAACAAATTTTCCTAATCTTTCTGTTCAAGCGCCATCTAC | 0.576 |
| GATGATTGTTCTCCCAGCTGATGAATTTCGGCGCTCGAGTAAACAAATTTTCCTAATCTTTCTGTTCAAGCGCCATCTAC | 0.359 |
| GATGATTGTTCTCCCAGCTGATGAATTCTGAGAATCGAGTAAACAAATTTTCCTAATCTTTCTGTTCAAGCGCCATCTAC | 0.199 |
| GATGATTGTTCTCCCAGCTGATGAATTCAGTTTGTCGAGTAAACAAATTTTCCTAATCTTTCTGTTCAAGCGCCATCTAC | 3.87 |
| GATGATTGTTCTCCCAGCTGATGAATTATATCGCTCGAGTAAACAAATTTTCCTAATCTTTCTGTTCAAGCGCCATCTAC | 0.557 |
| GATGATTGTTCTCCCAGCTGATGAATTGGCTAGGTCGAGTAAACAAATTTTCCTAATCTTTCTGTTCAAGCGCCATCTAC | 0.308 |
| GATGATTGTTCTCCCAGCTGATGAATTCAGCGCCTCGAGTAAACAAATTTTCCTAATCTTTCTGTTCAAGCGCCATCTAC | 1.17 |
| GATGATTGTTCTCCCAGCTGATGAATTCGCATCCTCGAGTAAACAAATTTTCCTAATCTTTCTGTTCAAGCGCCATCTAC | 5.74 |
| GATGATTGTTCTCCCAGCTGATGAATTCTCGGCTTCGAGTAAACAAATTTTCCTAATCTTTCTGTTCAAGCGCCATCTAC | 0.263 |
| GATGATTGTTCTCCCAGCTGATGAATTAGAGCTGTCGAGTAAACAAATTTTCCTAATCTTTCTGTTCAAGCGCCATCTAC | 0.35 |
| GATGATTGTTCTCCCAGCTGATGAATTAAGTGATTCGAGTAAACAAATTTTCCTAATCTTTCTGTTCAAGCGCCATCTAC | 1.38 |
| GATGATTGTTCTCCCAGCTGATGAATTGACAGCCTCGAGTAAACAAATTTTCCTAATCTTTCTGTTCAAGCGCCATCTAC | 0.47 |
| GATGATTGTTCTCCCAGCTGATGAATTATAATCGTCGAGTAAACAAATTTTCCTAATCTTTCTGTTCAAGCGCCATCTAC | 0.542 |
| GATGATTGTTCTCCCAGCTGATGAATTCTGGCCCTCGAGTAAACAAATTTTCCTAATCTTTCTGTTCAAGCGCCATCTAC | 0.387 |

| Sequence | binding signal (RPM ratio (pull-down/input)) |
| --- | --- |
| GATGATTGTTCTCCCAGCTGATGAATTCGATAAATCGAGTAAACAAATTTTCCTAATCTTTCTGTTCAAGCGCCATCTAC | 0.252 |
| GATGATTGTTCTCCCAGCTGATGAATTAAGCCGTTCGAGTAAACAAATTTTCCTAATCTTTCTGTTCAAGCGCCATCTAC | 0.86 |
| GATGATTGTTCTCCCAGCTGATGAATTAAACTTCTCGAGTAAACAAATTTTCCTAATCTTTCTGTTCAAGCGCCATCTAC | 0.311 |
| GATGATTGTTCTCCCAGCTGATGAATTGTTAGCGTCGAGTAAACAAATTTTCCTAATCTTTCTGTTCAAGCGCCATCTAC | 1.67 |
| GATGATTGTTCTCCCAGCTGATGAATTCTGGACCTCGAGTAAACAAATTTTCCTAATCTTTCTGTTCAAGCGCCATCTAC | 0.25 |
| GATGATTGTTCTCCCAGCTGATGAATTTAAAATATCGAGTAAACAAATTTTCCTAATCTTTCTGTTCAAGCGCCATCTAC | 0.313 |
| GATGATTGTTCTCCCAGCTGATGAATTGTGGGAGTCGAGTAAACAAATTTTCCTAATCTTTCTGTTCAAGCGCCATCTAC | 0.408 |
| GATGATTGTTCTCCCAGCTGATGAATTGGTGCGATCGAGTAAACAAATTTTCCTAATCTTTCTGTTCAAGCGCCATCTAC | 0.732 |
| GATGATTGTTCTCCCAGCTGATGAATTCGGCAACTCGAGTAAACAAATTTTCCTAATCTTTCTGTTCAAGCGCCATCTAC | 5.06 |
| GATGATTGTTCTCCCAGCTGATGAATTTATCCCTTCGAGTAAACAAATTTTCCTAATCTTTCTGTTCAAGCGCCATCTAC | 0.899 |
| GATGATTGTTCTCCCAGCTGATGAATTCACAACGTCGAGTAAACAAATTTTCCTAATCTTTCTGTTCAAGCGCCATCTAC | 0.501 |
| GATGATTGTTCTCCCAGCTGATGAATTGCAGGAGTCGAGTAAACAAATTTTCCTAATCTTTCTGTTCAAGCGCCATCTAC | 0.425 |
| GATGATTGTTCTCCCAGCTGATGAATTTGTGACGTCGAGTAAACAAATTTTCCTAATCTTTCTGTTCAAGCGCCATCTAC | 1.6 |
| GATGATTGTTCTCCCAGCTGATGAATTGAGCAAGTCGAGTAAACAAATTTTCCTAATCTTTCTGTTCAAGCGCCATCTAC | 1.08 |
| GATGATTGTTCTCCCAGCTGATGAATTATAATATTCGAGTAAACAAATTTTCCTAATCTTTCTGTTCAAGCGCCATCTAC | 1.08 |
| GATGATTGTTCTCCCAGCTGATGAATTAGGTAACTCGAGTAAACAAATTTTCCTAATCTTTCTGTTCAAGCGCCATCTAC | 1.27 |
| GATGATTGTTCTCCCAGCTGATGAATTTTAGTTCTCGAGTAAACAAATTTTCCTAATCTTTCTGTTCAAGCGCCATCTAC | 0.751 |
| GATGATTGTTCTCCCAGCTGATGAATTGAGTTGGTCGAGTAAACAAATTTTCCTAATCTTTCTGTTCAAGCGCCATCTAC | 1.66 |
| GATGATTGTTCTCCCAGCTGATGAATTAGCACCGTCGAGTAAACAAATTTTCCTAATCTTTCTGTTCAAGCGCCATCTAC | 0.376 |
| GATGATTGTTCTCCCAGCTGATGAATTCGCTAGTTCGAGTAAACAAATTTTCCTAATCTTTCTGTTCAAGCGCCATCTAC | 1.09 |
| GATGATTGTTCTCCCAGCTGATGAATTTCTCAATTCGAGTAAACAAATTTTCCTAATCTTTCTGTTCAAGCGCCATCTAC | 0.279 |
